Results: PubChem BioAssay AID651820 (National Center for Advancing Translational Sciences (NCATS), 2012)
Among all 340,000 compounds or so, about 12,000 (3.5%) were called active. This list was built around the results that the source calls inconclusive (neither active nor inactive); the mix of calls is not that of the screen. Calls follow the shape of the dose curve; as a rule, active = well fitted inhibition curve with a large enough effect; inconclusive = small, poorly fitted or top-dose-only effect, or another doubt; inactive = no such curve, though single readings can be large or run the other way. Potencies of inconclusive entries are left out as doubtful fits.

Experiment: qHTS Assay for Inhibitors of Hepatitis C Virus (HCV)
Settings: Huh7.5.1 HCVcc-Cre (HCVcc is cell-culture hepatitis C virus) infection, luciferase reporter, 44 h; series mostly up to 41.8 µM
Method in brief: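 Seed cells (1,000/well) for 4 h; treat with compound and infect with HCVcc-Cre, moi about 0.5. Incubate 44 h, then detect luciferase activity.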
Potency is read from the fitted curve at half-maximal effect; tags tell the direction and shape of the fitted curve.

With `COc1ccc(N=c2oc3c(OC)cccc3cc2C(=O)NCc2ccco2)cc1OC` as the molecule, how does the Potency read?
Its Potency is inconclusive [inhibitor, full curve, poor fit].

Which Potency does the source give for `CCN(CC)CCNC(=O)c1cc(-c2ccc(Br)s2)nc2ccccc12` here?
The Potency was active: 12.6 µM.

For `Cc1ccccc1OCC(=O)Nc1ccccc1-c1ccccc1NC(=O)COc1ccccc1C`, which Potency is on record?
Its Potency is inconclusive [inhibitor, single point].

Which Potency does the source give for `Cc1ccc(N(CC(=O)N/N=C/c2cccc(Br)c2)S(C)(=O)=O)cc1` here?
Its Potency is “inactive”.

Which Potency does the source give for `Oc1ccc(N2CCN(C(=S)NCc3ccccc3)CC2)cc1` here?
The Potency was inconclusive [inhibitor, full curve, poor fit].

For `CC1CCN(C(=O)COC(=O)/C=C/c2ccc(Br)o2)CC1`, which Potency is on record?
The Potency was “inactive”.

For `Nc1ccc2nc(SCC(=O)Nc3ccc(N4CCOCC4)c(Cl)c3)sc2c1`, which Potency is on record?
Its Potency is inconclusive [inhibitor, partial curve, poor fit].

With `Cc1nc2scc(-c3ccccc3)c2c(=O)n1N` as the molecule, how does the Potency read?
Its Potency is “inactive”.

With `CCN1CCCC1CN(Cc1cc2ccc(C)cc2[nH]c1=O)C(=S)Nc1ccc(OC)cc1OC` (centres undefined) as the molecule, how does the Potency read?
The Potency was inconclusive [inhibitor, single point].

With `COc1ccc(-c2cc(-c3cc(F)ccc3O)[nH]n2)cc1OC` as the molecule, how does the Potency read?
Its Potency is inconclusive [inhibitor, single point].

For `CS/C(N)=N/N=C/c1ccc2c(c1)OCO2`, which Potency is on record?
Its Potency is “inactive”.

With `O=c1[nH]c(=O)n(Cc2ccco2)c2c1C(C(F)(F)F)(C(F)(F)F)N=C(CCc1ccccc1)N2` as the molecule, how does the Potency read?
Its Potency is inconclusive [inhibitor, single point].

For `Cc1ccc2c(c1)c1c(n2C)C(=O)CCC1`, which Potency is on record?
The Potency was active: 3.98 µM.

With `COc1ccc(-n2c(/C=C/c3ccc(O)c(OC)c3)nc3ccccc3c2=O)cc1` as the molecule, how does the Potency read?
The Potency was active: 11.2 µM.

With `Cc1ccccc1S(=O)(=O)Cc1ccc(C(=O)N2CCN(c3ccc(F)cc3)CC2)o1` as the molecule, how does the Potency read?
The Potency was inconclusive [inhibitor, single point].

For `CCn1c(COC(=O)CNC(=O)c2ccccc2)nc2cc(S(=O)(=O)N(C)C)ccc21`, which Potency is on record?
The Potency was inconclusive [inhibitor, single point].

With `O=C(CSc1nnc(Cc2ccccc2)o1)N1CCCc2ccccc21` as the molecule, how does the Potency read?
Its Potency is inconclusive [inhibitor, single point].

Which Potency does the source give for `COc1ccc(-c2ccc(=O)n(Cc3ccccc3)n2)cc1` here?
Its Potency is inconclusive [inhibitor, single point].

For `COc1ccc(Nc2nc3cc(C)ccc3cc2C#N)c(OC)c1`, which Potency is on record?
Its Potency is inconclusive [inhibitor, full curve].
